From publication PMC5700166
The entries are a selection whose mix differs from that of the whole data set. The list includes weakly bound sequences.

How the values were obtained:
Experiment in all cases: protein-binding microarray (PBM)
Conditions in all cases: PBM: ~300 nM protein, 6 mM HEPES pH 7.8, 80 mM KCl, 0.5 mM EDTA, 0.5 mM EGTA, 6% glycerol, 35 ng/ul poly-dIdC, 1% milk, 1 h, room temperature; Ap Aiptasia and Nv Nematostella (sea anemones) / Co Capsaspora / Aq Amphimedon (sponge) / Dm Drosophila / Hu human; RHD is the Rel homology domain; high values mean tight binding; most listed sequences are background and not binding sites; double strand, one strand shown
[1] = molecular target: T1, GST-Nv-NF-kB (Cys allele) (UniProt E5G601)
T1 sequence: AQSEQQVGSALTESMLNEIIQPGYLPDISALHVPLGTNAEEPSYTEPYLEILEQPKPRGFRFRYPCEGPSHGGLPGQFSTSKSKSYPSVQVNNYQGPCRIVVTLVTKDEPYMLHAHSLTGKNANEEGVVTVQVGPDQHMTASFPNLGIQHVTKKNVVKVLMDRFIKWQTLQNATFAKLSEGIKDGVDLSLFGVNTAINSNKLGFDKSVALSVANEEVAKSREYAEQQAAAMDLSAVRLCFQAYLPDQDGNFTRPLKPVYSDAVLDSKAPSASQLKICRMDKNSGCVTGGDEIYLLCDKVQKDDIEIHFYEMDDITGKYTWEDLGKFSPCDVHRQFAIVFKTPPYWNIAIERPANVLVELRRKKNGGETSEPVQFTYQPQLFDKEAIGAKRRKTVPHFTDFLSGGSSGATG

[2] = molecular target: T2, GST-Co-NF-kB (UniProt F1ARL5)
T2 sequence: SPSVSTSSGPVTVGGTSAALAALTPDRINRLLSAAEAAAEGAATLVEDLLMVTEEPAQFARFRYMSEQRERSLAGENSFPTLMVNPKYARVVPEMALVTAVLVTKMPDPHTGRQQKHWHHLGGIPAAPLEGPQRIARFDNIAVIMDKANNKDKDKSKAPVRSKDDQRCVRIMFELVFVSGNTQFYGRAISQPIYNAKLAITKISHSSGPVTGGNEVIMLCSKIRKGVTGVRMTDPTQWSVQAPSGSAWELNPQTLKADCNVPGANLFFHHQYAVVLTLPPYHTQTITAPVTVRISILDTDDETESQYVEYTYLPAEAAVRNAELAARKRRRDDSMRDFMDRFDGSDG

[3] = molecular target: T3, GST-Dm-Relish (UniProt Q94527)
T3 sequence: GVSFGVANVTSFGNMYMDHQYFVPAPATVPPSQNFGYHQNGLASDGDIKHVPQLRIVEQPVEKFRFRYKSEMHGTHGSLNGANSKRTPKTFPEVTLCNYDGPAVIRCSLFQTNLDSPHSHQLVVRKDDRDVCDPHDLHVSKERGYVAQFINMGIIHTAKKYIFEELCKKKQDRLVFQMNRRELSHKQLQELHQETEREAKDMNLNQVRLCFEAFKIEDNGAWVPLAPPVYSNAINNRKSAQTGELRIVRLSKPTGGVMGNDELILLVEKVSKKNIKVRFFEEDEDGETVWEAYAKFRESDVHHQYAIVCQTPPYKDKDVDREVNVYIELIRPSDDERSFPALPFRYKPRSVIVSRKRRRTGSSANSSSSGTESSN

[4] = molecular target: T4, GST-Aq-NF-kB (UniProt A9Y5G7)
T4 sequence: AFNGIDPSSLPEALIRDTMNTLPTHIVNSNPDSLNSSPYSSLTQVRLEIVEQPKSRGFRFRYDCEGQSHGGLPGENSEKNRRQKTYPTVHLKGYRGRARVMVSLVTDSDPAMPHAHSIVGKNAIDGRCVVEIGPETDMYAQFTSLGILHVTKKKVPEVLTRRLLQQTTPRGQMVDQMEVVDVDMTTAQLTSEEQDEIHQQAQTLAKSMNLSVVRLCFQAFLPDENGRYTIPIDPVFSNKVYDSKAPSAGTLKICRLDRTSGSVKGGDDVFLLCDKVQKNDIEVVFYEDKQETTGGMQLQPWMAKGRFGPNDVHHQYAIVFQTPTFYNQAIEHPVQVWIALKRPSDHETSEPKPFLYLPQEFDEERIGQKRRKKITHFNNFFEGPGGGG

Sequence | binding signal [1] | binding signal [2] | binding signal [3] | binding signal [4]
CCGATTAACATCACATCTTTCCCTGATGTTAATCGGGTCTTGATTCGCTTGACGCTGCTG | 3.96 z-score | 3.84 z-score | 0.781 z-score | 4.25 z-score
CCGATTAACATCAAGGGGGATCCTGATGTTAATCGGGTCTTGATTCGCTTGACGCTGCTG | 6.38 z-score |  | 8.84 z-score | 6.34 z-score
CCGATTAACATCAGGGAAACTTATGATGTTAATCGGGTCTTGATTCGCTTGACGCTGCTG | 6.28 z-score |  | 2.25 z-score | 6.43 z-score
CCGATTAACATCAAGGGAATCCCTGATGTTAATCGGGTCTTGATTCGCTTGACGCTGCTG | 6.1 z-score | 2.83 z-score | 9.2 z-score | 6.63 z-score
CCGATTAACATCAGGGAATCAGATGATGTTAATCGGGTCTTGATTCGCTTGACGCTGCTG | 1.61 z-score |  | 0.457 z-score | 1.84 z-score
CCGATTAACATCAATATATTCCCTGATGTTAATCGGGTCTTGATTCGCTTGACGCTGCTG | 4.64 z-score |  | 2.1 z-score | 3.52 z-score
CCGATTAACATCAAAAAGCCCCCTGATGTTAATCGGGTCTTGATTCGCTTGACGCTGCTG | 9.31 z-score | 3.86 z-score | 9.41 z-score | 8.57 z-score
CCGATTAACATCAGGGGAAACACTGATGTTAATCGGGTCTTGATTCGCTTGACGCTGCTG | 8.15 z-score | 7.63 z-score | 9.02 z-score | 7 z-score
CCGATTAACATCACTACCCCGGATGATGTTAATCGGGTCTTGATTCGCTTGACGCTGCTG | 0.464 z-score |  | 0.827 z-score | 0.981 z-score
CCGATTAACATCAGGGGAAACGATGATGTTAATCGGGTCTTGATTCGCTTGACGCTGCTG |  | 6.65 z-score |  | 3.92 z-score
CCGATTAACATCATAAGGGGTGTTGATGTTAATCGGGTCTTGATTCGCTTGACGCTGCTG | 0.956 z-score |  | 0.81 z-score | 1.91 z-score
CCGATTAACATCAGGATTGTCCCTGATGTTAATCGGGTCTTGATTCGCTTGACGCTGCTG |  | 1.06 z-score |  | 5.51 z-score
CCGATTAACATCACGGCAATCCCTGATGTTAATCGGGTCTTGATTCGCTTGACGCTGCTG |  | 0.66 z-score |  | 2.66 z-score
CCGATTAACATCACGGGGAATTATGATGTTAATCGGGTCTTGATTCGCTTGACGCTGCTG |  | 8.2 z-score |  | 6.42 z-score
CCGATTAACATCAGGGGATTAGATGATGTTAATCGGGTCTTGATTCGCTTGACGCTGCTG |  | 2.75 z-score |  | 3.91 z-score
CCGATTAACATCAATAGTTCCCCTGATGTTAATCGGGTCTTGATTCGCTTGACGCTGCTG |  | 7.79 z-score |  | 5.01 z-score

Sequence | binding signal [1] | binding signal [2] | binding signal [3] | binding signal [4]
CCGATTAACATCAGGGGAAGACCTGATGTTAATCGGGTCTTGATTCGCTTGACGCTGCTG |  | 5.23 z-score |  | 7.72 z-score
CCGATTAACATCAGCTAATTCCCTGATGTTAATCGGGTCTTGATTCGCTTGACGCTGCTG |  | 1.82 z-score |  | 3.15 z-score
CCGATTAACATCAGGGGAGAAAATGATGTTAATCGGGTCTTGATTCGCTTGACGCTGCTG | 5.5 z-score |  | 2.26 z-score | 3.89 z-score
CCGATTAACATCACTAAATCCCCTGATGTTAATCGGGTCTTGATTCGCTTGACGCTGCTG | 7.06 z-score |  | 6.49 z-score | 5.34 z-score
CCGATTAACATCAAACATTCCCATGATGTTAATCGGGTCTTGATTCGCTTGACGCTGCTG |  | 2.38 z-score |  | 3.52 z-score
CCGATTAACATCAGGATAGTCCCTGATGTTAATCGGGTCTTGATTCGCTTGACGCTGCTG |  | 0.801 z-score |  | 6.61 z-score
CCGATTAACATCAGGAAGCCCCCTGATGTTAATCGGGTCTTGATTCGCTTGACGCTGCTG |  | 1.49 z-score |  | 7.03 z-score
CCGATTAACATCACGGAACCCCCTGATGTTAATCGGGTCTTGATTCGCTTGACGCTGCTG |  | 2.13 z-score |  | 5.54 z-score
CCGATTAACATCAGGGCATCCCCTGATGTTAATCGGGTCTTGATTCGCTTGACGCTGCTG |  | 2.46 z-score |  | 8.18 z-score
CCGATTAACATCACGGGACTTCCTGATGTTAATCGGGTCTTGATTCGCTTGACGCTGCTG |  | 0.0562 z-score |  | 6.21 z-score
CCGATTAACATCAGGGACTTACCTGATGTTAATCGGGTCTTGATTCGCTTGACGCTGCTG |  | 0.529 z-score |  | 8.29 z-score
CCGATTAACATCAATGGGATTTCTGATGTTAATCGGGTCTTGATTCGCTTGACGCTGCTG |  | 1.38 z-score |  | 2.47 z-score
CCGATTAACATCAGGGAAATATATGATGTTAATCGGGTCTTGATTCGCTTGACGCTGCTG | 5.66 z-score |  | 1.94 z-score | 6.09 z-score
CCGATTAACATCAGGAAGCCCCATGATGTTAATCGGGTCTTGATTCGCTTGACGCTGCTG |  | 0.67 z-score |  | 4.02 z-score
CCGATTAACATCAGGGAAACAAATGATGTTAATCGGGTCTTGATTCGCTTGACGCTGCTG | 3.05 z-score |  | 0.99 z-score | 3.12 z-score
CCGATTAACATCACGGAAAGCCCTGATGTTAATCGGGTCTTGATTCGCTTGACGCTGCTG |  | 0.308 z-score |  | 4.35 z-score
